Reference: PubChem BioAssay AID540317 (National Center for Advancing Translational Sciences (NCATS), 2011)
In all, about 390,000 compounds went through this assay and about 2,200 (0.56%) were called active. This list was built around the results that the source calls inconclusive (neither active nor inactive); the mix of calls is not that of the screen. Calls come from the whole dose curve; as a rule, active = well fitted inhibition curve with a large enough effect; inconclusive = small, poorly fitted or top-dose-only effect; inactive = no such curve, though single readings can be large or run the other way. Potencies beside an inconclusive call are fits to weak or partial responses and may not hold up.

molecular target: Chromobox protein homolog 1 (Homo sapiens) (UniProt P83916); experiment: HTS for Inhibitors of HP1-beta Chromodomain Interactions with Methylated Histone Tails; conditions: AlphaScreen HP1-beta / biotin-H3K9me3 peptide binding; series mostly up to 114 µM; note: nearly all actives have a fitted effect of over 70% in size
UniProt P83916, sequence (P83916 whole entry, looked up): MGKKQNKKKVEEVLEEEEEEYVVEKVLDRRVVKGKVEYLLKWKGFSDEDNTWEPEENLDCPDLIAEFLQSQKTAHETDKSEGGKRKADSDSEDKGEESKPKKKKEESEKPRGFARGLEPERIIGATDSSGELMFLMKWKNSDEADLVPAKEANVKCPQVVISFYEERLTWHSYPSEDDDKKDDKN
How it was run: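 HP1-beta protein (50 nM final) preincubated 30 min at room temperature with biotinylated H3(1-18)K9me3 peptide (50 nM) in PBS pH 7.4, 0.01% Tween-20, then compound added for 30 min. AlphaScreen streptavidin donor/nickel chelate acceptor beads (10 ug/mL final), 30 min dark, luminescence read.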
Potency is the fitted concentration of half-maximal effect; tags give direction and shape of the fitted curve.

Which Potency does the source give for c1cc2c(cc1CNc1ccc(N3CCOCC3)cc1)OCO2 here?
The Potency was inconclusive: 31.6 µM [inhibitor, full curve].

For CCOC(=O)Cc1ccc(NC(=O)Nc2nnc(N3CCCCC3C)s2)cc1 (configuration not stated), which Potency is on record?
The Potency was “inactive”.

How did the Potency turn out when C[n+]1ccccc1C1CCCC/C1=N\Nc1ccc([N+](=O)[O-])cc1[N+](=O)[O-] (configuration not stated) was run?
Its Potency is “inactive”.

With Oc1c(C(c2ccccc2)N2CCc3ccccc3C2)sc2ncnn12 (configuration not stated) as the compound, how does the Potency read?
The Potency was inconclusive: 79.4 µM [inhibitor, partial curve].

With CCCCCc1cc(=O)oc2c(C(CCN3CCCC3)c3ccc(N(C)C)cc3)c(OC)cc(OC)c12 (configuration not stated) as the compound, how does the Potency read?
The Potency was inconclusive: 14.1 µM [inhibitor, full curve].

How did the Potency turn out when Cc1ccc(OCCCN(C)C)c(Br)c1 was run?
The Potency was inconclusive: 50.1 µM [inhibitor, single point].

With CCCc1cc(=O)[nH]c(SCC(=O)c2c[nH]c3ccccc23)n1 as the compound, how does the Potency read?
Its Potency is inconclusive: 35.5 µM [inhibitor, single point].

With Cc1cc(N2CCOCC2)nc(N)n1 as the compound, how does the Potency read?
Its Potency is inconclusive: 89.1 µM [inhibitor, single point].

CN(C)c1ccc(C(=S)NCc2ccco2)cc1 was tested. Which Potency did it give?
The Potency was inconclusive: 11.2 µM [inhibitor, full curve].

CCc1cccc(C)c1Nc1c(-c2cccs2)nc2ncccn12 was tested. Which Potency did it give?
Its Potency is “inactive”.

How did the Potency turn out when CC1=C(C(=O)Nc2cc(C)cc(C)c2)C2(CCCCC2)OC1=O was run?
The Potency was “inactive”.

Which Potency does the source give for COc1cc(/C=N/O)cc(Cl)c1OC here?
Its Potency is “inactive”.

O=c1[nH]c2ccc(Cl)cc2[nH]1 was tested. Which Potency did it give?
Its Potency is “inactive”.

With Cc1ccsc1CN1CCC(C(=O)NCc2ccccc2Cl)CC1 as the compound, how does the Potency read?
Its Potency is inconclusive: 56.2 µM [inhibitor, single point].

Which Potency does the source give for COC(=O)C1CCN(C2=C(NS(=O)(=O)c3ccc(Cl)cc3)C(=O)c3ccccc3C2=O)CC1 here?
The Potency was inconclusive: 12.6 µM [inhibitor, full curve].

Oc1cccc(/C=N/Nc2cc(N3CCCC3)nc(N3CCCC3)n2)c1 was tested. Which Potency did it give?
Its Potency is inconclusive: 70.8 µM [inhibitor, partial curve].

With O=C(NCC1(N2CCCCC2)CCCCC1)c1ccc(S(=O)(=O)N2CCCC2)cc1 as the compound, how does the Potency read?
Its Potency is “inactive”.

Which Potency does the source give for CCSc1n[nH]c(=S)s1 here?
The Potency was inconclusive: 50.1 µM [inhibitor, partial curve].

CC(C(=O)NCc1ccccc1)n1ccc2cc(S(=O)(=O)N3CCCC3)ccc21 (configuration not stated) was tested. Which Potency did it give?
The Potency was “inactive”.

CCSC1=NC2(CCN(C(=O)NC3CCCCC3)CC2)N=C1c1ccc(OC)cc1 was tested. Which Potency did it give?
The Potency was “inactive”.

For Cc1ccccc1N=C1c2cc([N+](=O)[O-])ccc2-c2ncccc21, which Potency is on record?
Its Potency is inconclusive: 15.8 µM [inhibitor, partial curve, poor fit].

For COc1ccc(-c2cc(=O)oc3c(C)c(OCC(=O)N(C)C)ccc23)cc1, which Potency is on record?
Its Potency is “inactive”.

With COc1ccccc1CNc1ncccn1 as the compound, how does the Potency read?
The Potency was inconclusive: 15.8 µM [inhibitor, full curve].

COCCNC(=O)CN1CCN(C(c2ccccc2)c2ccccc2)CC1 was tested. Which Potency did it give?
The Potency was inconclusive: 70.8 µM [inhibitor, single point].

How did the Potency turn out when O=C(c1ccc(OC2CCN(CCCc3ccccc3)CC2)cc1)N1CCCC1 was run?
Its Potency is “inactive”.

CC(O)c1n(C)c(Cl)c[n+]1C (configuration not stated) was tested. Which Potency did it give?
Its Potency is “inactive”.

For CC(=O)Nc1ccc(Oc2ccc([N+](=O)[O-])cc2Cl)cc1, which Potency is on record?
Its Potency is inconclusive: 25.1 µM [inhibitor, full curve].

Which Potency does the source give for COc1ccccc1C(=O)Nc1ccc2oc(-c3ccc(F)cc3)nc2c1 here?
Its Potency is “inactive”.

How did the Potency turn out when CCOC(=O)c1cc2c(=O)n3ccccc3nc2n(CCCOC)c1=NC(=O)c1cc2ccccc2o1 was run?
Its Potency is “inactive”.

With CCCCN=Cc1sc2ccc(OCC)cc2c1O as the compound, how does the Potency read?
The Potency was inconclusive: 70.8 µM [inhibitor, single point].

Which Potency does the source give for O=C(NCc1ccc2c(c1)OCO2)C(=O)NC1CCCCC1 here?
The Potency was inconclusive: 39.8 µM [inhibitor, single point].

Cc1ccc(NC(=O)N2CCC(NC(=O)c3cccc(C)c3)CC2)cc1 was tested. Which Potency did it give?
The Potency was inconclusive: 35.5 µM [inhibitor, partial curve, poor fit].

For CC(C)(C)NC(=O)NC(=O)CN1CCN(Cc2ccccc2)CC1, which Potency is on record?
The Potency was “inactive”.

O=C1C2=C(Nc3ccccc3SC2c2c(F)cccc2Cl)c2ccccc21 (configuration not stated) was tested. Which Potency did it give?
The Potency was inconclusive: 14.1 µM [inhibitor, full curve].

How did the Potency turn out when Cc1cccc(-n2cc(CNCCN3CCOC3=O)c(-c3cccc(F)c3)n2)c1 was run?
Its Potency is “inactive”.

For Fc1cccc(CN2CCC(Cc3ccccc3)CC2)c1, which Potency is on record?
The Potency was inconclusive: 31.6 µM [inhibitor, partial curve, poor fit].

How did the Potency turn out when C1=CC2=NC34CCCCC3CC3=C(CCCC3)N4C2=CC1=NC1CCCCC1 (configuration not stated) was run?
The Potency was inconclusive: 44.7 µM [inhibitor, partial curve].

How did the Potency turn out when CC1CC2=C(NC(=S)NC2c2cccc(F)c2)/C(=C/c2cccc(F)c2)C1 (configuration not stated) was run?
The Potency was inconclusive: 50.1 µM [inhibitor, partial curve].

How did the Potency turn out when CC(C)c1ccc(NS(=O)(=O)c2ccc3[nH]cc(C(=O)NC4CCCCC4)c(=O)c3c2)cc1 was run?
Its Potency is “inactive”.

With COc1ccc(C(=O)N/C=C/n2cnc3cc(C(F)(F)F)ccc32)cc1 as the compound, how does the Potency read?
Its Potency is “inactive”.

How did the Potency turn out when CC1=C(C(=O)Nc2ccc(C)cc2C)C(c2ccc(C(C)C)cc2)n2nc(C(F)(F)F)nc2N1 (configuration not stated) was run?
Its Potency is inconclusive: 89.1 µM [inhibitor, partial curve, poor fit].

Which Potency does the source give for COc1ccc(-n2c(-c3ccc(Cl)cc3)cc3c2CC(C)(C)CC3=O)c(OC)c1 here?
The Potency was inconclusive: 15.8 µM [inhibitor, full curve, poor fit].

Which Potency does the source give for COc1ccc(O)c(C(=O)CC(=O)c2ccc(F)cc2)c1 here?
Its Potency is inconclusive: 50.1 µM [inhibitor, partial curve].

For Cc1cccnc1Nc1nc(-c2ccccc2)cs1, which Potency is on record?
Its Potency is “inactive”.

How did the Potency turn out when CCc1ccc(C(=O)NNC(=O)OC)cc1 was run?
The Potency was inconclusive: 44.7 µM [inhibitor, partial curve].

Which Potency does the source give for O=C(Nc1ccc(Cl)cc1Cl)c1cccc(N2C(=O)C=CC2=O)c1 here?
The Potency was inconclusive: 3.98 µM [inhibitor, full curve].

Which Potency does the source give for COc1ccc(OC)c(N=c2ssnc2Cl)c1 here?
The Potency was inconclusive: 15.8 µM [inhibitor, full curve, poor fit].

How did the Potency turn out when COC(=O)C1=C(C)N(c2cccc(Cl)c2)C(=O)C1 was run?
The Potency was “inactive”.

How did the Potency turn out when COc1ccc(C(C(=O)NCC2CCCO2)N(Cc2ccccc2)C(=O)CNC(=O)c2ccco2)cc1OC (configuration not stated) was run?
Its Potency is inconclusive: 89.1 µM [inhibitor, single point].

Which Potency does the source give for O=C(Nc1ccc(Cl)cc1)c1ccc2c(c1)N(Cc1ccccc1)C(=O)c1ccccc1S2(=O)=O here?
Its Potency is “inactive”.

Which Potency does the source give for Cn1c(CNc2ccccc2O)nc2ccccc21 here?
Its Potency is “inactive”.

For CC1=C(C)/C(=N\OS(=O)(=O)c2ccccc2)C=CC1=O, which Potency is on record?
The Potency was inconclusive: 35.5 µM [inhibitor, full curve].

How did the Potency turn out when Cn1c(CCc2nc3ccccc3[nH]2)n[nH]c1=S was run?
Its Potency is “inactive”.

Which Potency does the source give for COc1cccc(/C=C/c2nc(C#N)c(N(C)Cc3ccccc3)o2)c1 here?
The Potency was inconclusive: 14.1 µM [inhibitor, partial curve, poor fit].

Which Potency does the source give for COc1ccc(C(=O)/C=C/c2ccc(O)cc2)c(O)c1CC=C(C)C here?
Its Potency is inconclusive: 35.5 µM [inhibitor, partial curve, poor fit].

Which Potency does the source give for COCCOC(=O)c1c(NC(=O)CN2CCc3ccccc32)sc(C(N)=O)c1C here?
The Potency was “inactive”.

Which Potency does the source give for COc1ccc(-c2csc(N(CCCN3CCOCC3)C(=O)c3ccco3)n2)cc1 here?
Its Potency is inconclusive: 50.1 µM [inhibitor, partial curve, poor fit].

How did the Potency turn out when COc1ccccc1/C=C\C=N\n1c(-c2ccc(Cl)cc2Cl)n[nH]c1=S was run?
Its Potency is inconclusive: 22.4 µM [inhibitor, single point].

For COc1ccc(/C=C2\CCC/C(=C\c3ccc(OC)c(OC)c3OC)C2=O)c(OC)c1OC, which Potency is on record?
Its Potency is inconclusive: 44.7 µM [inhibitor, partial curve].

Which Potency does the source give for O=C(Nc1nnc(CCS(=O)(=O)c2ccc3ccccc3c2)s1)c1ccc([N+](=O)[O-])cc1 here?
Its Potency is “inactive”.

Cc1ccc2cc(CN(CC3CCCO3)C(=S)NCc3ccco3)c(=O)[nH]c2c1 (configuration not stated) was tested. Which Potency did it give?
The Potency was inconclusive: 39.8 µM [inhibitor, partial curve].

For COc1ccc(CCNc2nc(C)c(C(C)=O)s2)cc1OC, which Potency is on record?
Its Potency is inconclusive: 25.1 µM [inhibitor, partial curve, poor fit].

For Cc1cc(C)c2nc(N(CCN(C)C)C(=O)c3ccc(S(=O)(=O)N(C)CC4CCCO4)cc3)sc2c1 (configuration not stated), which Potency is on record?
The Potency was “inactive”.

Which Potency does the source give for Nc1nn2c(-c3ccccc3)cc(=O)[nH]c2c1N=Nc1ccc(O)cc1 here?
The Potency was inconclusive: 50.1 µM [inhibitor, partial curve].

How did the Potency turn out when COc1ccc(-c2cnc(SCC(=O)Nc3ccc4c(c3)OCO4)n2Cc2ccco2)cc1 was run?
Its Potency is inconclusive: 20 µM [inhibitor, full curve].

How did the Potency turn out when COc1cccc(NC(=O)C2CCN(C(=O)[C@@H]3Cc4ccccc4CN3)CC2)c1 was run?
Its Potency is “inactive”.

For Cc1c(C(=O)OCC(=O)N(CC(C)C)c2c(N)n(Cc3ccccc3)c(=O)[nH]c2=O)oc2ccccc12, which Potency is on record?
Its Potency is “inactive”.

How did the Potency turn out when CCn1cc(C(=O)OCC(=O)c2cc(C)n(-c3cccc(C(F)(F)F)c3)c2C)c(=O)c2ccc(C)nc21 was run?
The Potency was inconclusive: 70.8 µM [inhibitor, partial curve].

How did the Potency turn out when CCOC(=O)c1cc(-c2ccccc2)sc1N was run?
The Potency was inconclusive: 39.8 µM [inhibitor, partial curve].

Cc1cccc(-n2ccnc2SCC(=O)Nc2ccccc2C(F)(F)F)c1 was tested. Which Potency did it give?
Its Potency is inconclusive: 12.6 µM [inhibitor, partial curve, poor fit].

Which Potency does the source give for CCCCN(C)C(=O)Cc1c(OC)ccc2cc(Br)ccc12 here?
The Potency was inconclusive: 8.91 µM [inhibitor, partial curve, poor fit].

For COc1cc(CN2CCc3nc(Nc4ccc5c(c4)OCCO5)ncc3C2)cc(OC)c1OC, which Potency is on record?
The Potency was “inactive”.
